According to publication PMC4336329 (PLoS ONE, 2015):
In all, about 310,000 compounds went through this assay and about 2,200 (0.71%) showed an effect of 50% or more. The effect is printed as a negative number. Some of the results follow.

What follows are compounds tested against human ether-à-go-go-related gene (hERG) potassium channel (human, UniProt Q12809) (assay: primary screen, population patch clamp on CHO cells stably expressing hERG).
Chain of human ether-à-go-go-related gene (hERG) potassium channel (Q12809 whole entry, looked up): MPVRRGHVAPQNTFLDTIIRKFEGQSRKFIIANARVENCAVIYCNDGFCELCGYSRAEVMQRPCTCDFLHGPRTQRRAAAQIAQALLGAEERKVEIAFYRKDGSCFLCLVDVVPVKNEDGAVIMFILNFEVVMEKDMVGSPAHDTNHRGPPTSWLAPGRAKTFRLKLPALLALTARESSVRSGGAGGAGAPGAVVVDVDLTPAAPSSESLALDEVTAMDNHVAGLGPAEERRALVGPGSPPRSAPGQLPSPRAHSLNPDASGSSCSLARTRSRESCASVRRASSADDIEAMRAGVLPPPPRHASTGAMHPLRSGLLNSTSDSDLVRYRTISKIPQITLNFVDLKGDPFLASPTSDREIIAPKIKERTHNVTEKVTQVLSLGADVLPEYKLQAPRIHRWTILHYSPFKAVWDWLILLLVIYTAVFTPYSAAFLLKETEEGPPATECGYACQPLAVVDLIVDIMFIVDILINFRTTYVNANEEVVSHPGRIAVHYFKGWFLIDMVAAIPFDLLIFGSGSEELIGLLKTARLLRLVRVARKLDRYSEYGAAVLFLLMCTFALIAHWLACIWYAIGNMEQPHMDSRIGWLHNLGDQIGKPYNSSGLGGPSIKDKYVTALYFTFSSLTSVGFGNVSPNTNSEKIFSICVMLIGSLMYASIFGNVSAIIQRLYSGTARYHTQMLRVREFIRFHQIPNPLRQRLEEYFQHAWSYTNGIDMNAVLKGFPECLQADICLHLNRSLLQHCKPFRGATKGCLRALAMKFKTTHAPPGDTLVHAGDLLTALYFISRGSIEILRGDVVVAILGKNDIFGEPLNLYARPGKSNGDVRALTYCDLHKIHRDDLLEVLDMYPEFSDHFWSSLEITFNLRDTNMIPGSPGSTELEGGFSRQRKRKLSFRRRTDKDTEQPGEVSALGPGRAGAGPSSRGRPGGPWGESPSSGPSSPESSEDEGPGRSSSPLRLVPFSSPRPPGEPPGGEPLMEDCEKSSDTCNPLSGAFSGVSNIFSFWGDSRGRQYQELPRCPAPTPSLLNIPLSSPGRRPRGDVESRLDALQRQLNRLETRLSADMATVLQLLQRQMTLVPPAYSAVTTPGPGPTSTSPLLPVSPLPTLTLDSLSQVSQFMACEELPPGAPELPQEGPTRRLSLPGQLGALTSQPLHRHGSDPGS

Row | Compound | hERG current change (%, negative = inhibition) at 1uM [%]
1 | COC(=O)c1sccc1NC(=O)Nc1ccc(C)cc1 | 19.5
2 | Cc1ccccc1N1CCN(S(=O)(=O)c2nnc(NC(=O)c3ccco3)s2)CC1 | 5.64
3 | CCn1cc(C(=O)O)c(=O)c2cc(S(=O)(=O)N3CCCCCC3)ccc21 | 20.1
4 | CCOCCCn1c(=S)[nH]c2cc(C(=O)N3CCN(C)CC3)ccc2c1=O | -8.13
5 | Cc1ccc(C(=O)OCC(=O)Nc2ccc3[nH]c(=O)[nH]c3c2)cc1S(=O)(=O)N1CCOCC1 | 8.82
6 | CN(C)CC(C(=O)c1ccccc1)c1ccccc1.Cl (stereo not shown) | 1.95
7 | O=C(NC(=S)NC1CCCCCC1)c1cncc(Br)c1 | 8.87
8 | Cc1ccc(NC(=O)CN(C)C(=O)Cc2c(Cl)cccc2Cl)cc1 | 13.5
9 | CC(=O)NCCc1ccc(S(=O)(=O)N(C)C2CCS(=O)(=O)C2)cc1 (stereo not shown) | 2.98
10 | O=C(CSc1cccs1)Nc1ccc(Cl)cc1 | 13.3
11 | CCn1c(SCC(=O)c2[nH]c(C)c(C(C)=O)c2C)nnc1-c1cccs1 | -0.905
12 | Cc1onc(-c2c(F)cccc2Cl)c1C(=O)ONC(=O)c1ccco1 | 2.92
13 | Cc1ccc(C(=O)Nc2cccc(NC(=O)c3cccnc3)c2)cc1 | 12.7
14 | Cc1ccc(NS(=O)(=O)c2ccc(-c3ccc(=O)[nH]n3)o2)cc1Cl | 15.1
15 | CC12CCC(=O)N1C(C(=O)NNC(=O)c1ccccc1Cl)CS2 (stereo not shown) | 11.9
16 | COc1cc(CN2CCN(Cc3ccc(C(F)(F)F)cc3)CC2)cc(OC)c1OC.O=C(O)C(=O)O | -17.1
17 | Cc1nc2cc(Nc3ccncc3)ccc2s1 | -10.3
18 | Cc1cc(C)c(S(=O)(=O)Nc2ccc(O)c(Sc3ncn[nH]3)c2)cc1C | 8.49
19 | COC(=O)c1ccc(NN=Nc2ccc(C)cc2)cc1 | 8.95
20 | Cc1ccc(N2C(=O)C(CN(C)C)C2c2ccccc2)cc1 (stereo not shown) | -10.2
21 | O=c1[nH]c2ccccc2n1Cc1ccccc1 | 4.42
22 | CC1=C(C(=O)Nc2ccc(Cl)cc2C(=O)N2CCC(C(N)=O)CC2)SCCO1 | 11.6
23 | O=C(N/N=C1\CC(c2ccccc2)Oc2ccccc21)c1cccnc1 (stereo not shown) | 5.08

Row | Compound | hERG current change (%, negative = inhibition) at 1uM [%]
24 | O=C(O)c1ccc(/C=N/NC(=O)c2ccc(NS(=O)(=O)c3cccs3)cc2)cc1 | 13.8
25 | O=C(c1cccc(Cl)c1)N1CCN(c2ccccn2)CC1 | 0.407
26 | C/C(=N/NC(=O)CN1CCN(Cc2ccccc2Cl)CC1)c1ccco1 | 3.89
27 | COC(=O)c1ccc(CNC(=O)CSC(C)C(=O)Nc2cc(C)on2)cc1 (stereo not shown) | 11
28 | N/C(=N\OC(=O)c1ccco1)c1cccc(Br)c1 | -15
29 | COC(=O)c1cccc2nc3c(C(C)O)cccc3nc12 (stereo not shown) | 11.1
30 | CCOCCCNC(=O)c1cccc(NC(=O)C2=C(C)OCCS2)c1 | 14.9
31 | CCCC(=O)Nc1c2c(nc3ccccc13)N(c1ccccc1)CC2 | 6.34
32 | COc1ccc(/C=C(\C#N)C(=O)OCC(=O)NCc2ccco2)cc1 | 10.1
33 | N#CCc1nc2ccccc2c(=O)[nH]1 | -3.9
34 | O=c1[nH]c(=O)n(CCC2=CCCCC2)c(O)c1C=NCCN1CCNCC1 | -2.73
35 | Cc1cc(C(=O)NN=C2CCCCCC2)c(C)o1 | 3.9
36 | COC(C/C=C\[C@@H](O)[C@@H](C)OCc1ccccc1)OC | 18
37 | CCc1cc2c(=O)n(CC(C)C)cnc2s1 | 0.774
38 | Cc1cccc(OCC(=O)Nc2cc(C)ccc2O)c1 | 14.2
39 | C(=N\N(Cc1ccccc1)c1ccccc1)/c1ccco1 | 15.1
40 | CC(Oc1ccc2c3c(c(=O)oc2c1)CCCC3)C(=O)NCCCn1ccnc1 (stereo not shown) | 36.2
41 | CC1(C)CC(=O)N(CC(=O)NC2CCCC2)c2ccccc2S1(=O)=O | 13.1
42 | CCOC(=O)/C(N)=C/c1ncc(C(F)(F)F)cc1Cl | 5.33
43 | CSCC[C@H](NC(=O)[C@H](Cc1ccccc1)n1c(=O)[nH]c2ccccc2c1=O)C(=O)N1CCC(C(=O)O)CC1 | 11.5
44 | COc1cc(OC)c(-c2c3cc(O)c(=O)cc-3oc3cc(O)c(O)cc23)cc1OC | 12.3
45 | CCOc1cccc2cc(C(=O)Oc3ccc(OC)cc3)c(=O)oc12 | 14.7
46 | CC(=O)c1sc(NC(=O)CSC(C)C(=O)Nc2cc(C)on2)nc1-c1ccccc1 (stereo not shown) | 3.74

Row | Compound | hERG current change (%, negative = inhibition) at 1uM [%]
47 | COc1ccccc1N1CC=C(c2cccc([N+](=O)[O-])c2)NC1=O | 8.94
48 | CC(=O)N1CCC2(CC1)C(C#N)=C(N)Oc1n[nH]c(C(F)(F)F)c12 | 8.24
49 | O=C(NCC1CCN(Cc2cccc(Cl)c2)CC1)C1CCCN(c2ncnc3c2nc2n3CCCCC2)C1 (stereo not shown) | 6.76
50 | CCOc1cc(NC(=S)NCCCN2CCOCC2)c(OCC)cc1NC(=O)c1ccccc1 | 16.1
51 | COc1ccccc1COCC(O)CNCCc1ccc(C(F)(F)F)cc1.O=C(O)C(=O)O (stereo not shown) | -1.37
52 | CCc1ccc(C(=O)N2CCN(S(=O)(=O)c3sc(C(=O)O)c(C)c3C(=O)O)CC2)cc1 | 9.01
53 | C/C(=N\OC(=O)Nc1ccc(Cl)cc1)c1ncc(C(F)(F)F)cc1N1CCOCC1 | 2.65
54 | CCOC(=O)c1cccc(S(=O)(=O)N2CCCC2)c1 | 10.6
55 | CSc1ccccc1OCc1cc(C(=O)NC(C)CCn2cccn2)no1 (stereo not shown) | 14
56 | CCOc1ccccc1NC(=S)N1CCN(c2cccc(C)c2C)CC1 | 8.82
57 | Cc1ccc(OCc2cc(C(=O)N3CCN(CC(=O)NC(C)C)CC3)no2)cn1 | 17.6
58 | COC(=O)c1[nH]c2c(c1C)C(=O)CCC2 | 13.1
59 | CCN(CC)c1ccc2ccc(=O)oc2c1 | 7.92
60 | Cc1ccc(NC(=O)CSc2nnc(-c3ccncc3)n2N)cc1C | 12.4
61 | O=C1NC2(CCCCO2)CO1 (stereo not shown) | 16
62 | CCN(CC)CCN(C)C(=O)CCc1nnc(-c2ccc(C)s2)o1 | 9.6
63 | Cn1c(=O)c2c(ncn2CC(COCc2ccccc2Cl)OCc2ccccc2Cl)n(C)c1=O (stereo not shown) | -1.33
64 | O=C(Cc1ccccc1)NNC(=S)NC(=O)c1cccnc1 | 13.4
65 | COc1ccc(/C(O)=C2/C(=O)C(=O)N(c3ncccn3)C2c2ccc(C(C)(C)C)cc2)cc1 (stereo not shown) | 7.02
66 | COc1ccc(OC)c(N=CC2=C(O)CC(C)(C)CC2=O)c1 | 11.2
67 | CNC(=S)N=Nc1c(O)[nH]c2ccc(C(C)C)cc12 | 15.5
68 | Cc1ccc(NC(=O)CCC(=O)NNC(=O)CCc2ccccc2)c(C)c1 | 15.8
69 | COC(=O)[C@H](CC(C)C)NC(=O)NC1CCCc2ccccc21 (stereo partly shown) | 22.1

Row | Compound | hERG current change (%, negative = inhibition) at 1uM [%]
70 | COc1ccc(CNC(=O)C(C)Sc2nc3ccccc3c(=O)n2CC2CCCO2)cc1 (stereo not shown) | -17.5
71 | COc1ccc(C)cc1NC(=O)CSc1nnc(COc2ccc(C)cc2)n1Cc1ccco1 | -3.47
72 | Cc1cccc(C)c1NC(=O)C1=C(O)c2sccc2N(C)S1(=O)=O | 7.94
73 | O=S(=O)(c1ccc2c(c1)CCCN2)N1CCCC2CCCCC21 (stereo not shown) | -2.88
74 | CC(C)C(OC(=O)Cn1nnc2ccccc21)C(=O)NC1CCCC1 (stereo not shown) | 6.29
75 | Cc1ccc2cc3c(nc2c1)OCC3 | 8.8
76 | O=C(CSc1nc2[nH]c(=O)cc(O)c2s1)Nc1ccc(Cl)c(C(F)(F)F)c1 | -2.4
77 | CC(C)(C)c1ccc(C(=O)NC(=S)N2CCCC2)cc1 | 16.4
78 | Cc1ccc(C(=O)O)cc1NC(=S)NC(=O)c1ccc(-c2ccc(Cl)cc2)o1 | 7.61
79 | Cc1ccc(SCCC(=O)Nc2ccccc2C(=O)N2CCOCC2)cc1 | 0.852
80 | Oc1cccc(C(=S)N2CCCCC2)c1 | 7.6
81 | COc1ccc(C(=O)NC2CCCc3ccccc32)cc1Br (stereo not shown) | 17
82 | Cc1ccc(Nc2nc(N)nc(CSC(=S)N3CCOCC3)n2)cc1 | -0.757
83 | Cc1cccc(NC(=O)COC(=O)Cc2cccs2)c1C | 16.9
84 | O=C(CCc1nc2ccccc2c(=O)[nH]1)Nc1ccc(F)cc1 | 3.15
85 | Cc1ccc2c(c1)c1c(n2CC(O)Cn2ccnc2C)C(=O)CCC1 (stereo not shown) | -5.14
86 | CCCCOc1ccccc1Cn1c(=O)oc2ccccc21 | 9.79
87 | O=C(Cc1coc(-c2ccc(F)cc2)n1)Nc1ccccc1 | 5.7
88 | O=C(NCc1ccc2c(c1)OCO2)c1ccc(N2C(=O)C3CCCCC3C2=O)cc1 (stereo not shown) | -13.9
89 | Cc1oc(-c2ccc3c(c2)OCCO3)cc1C(=O)NC(Cc1ccccc1)C(=O)O (stereo not shown) | 1.88
90 | CCOC(=O)COn1c(=O)c(=O)n(OC)c2ccccc21 | 15.2
91 | O=C(Nc1cc(C(=O)N2CCCC2)ccc1N1CCCC1)c1ccccc1F | -82.8
